# Reference: the supplement of paper PMC3334620
# In all, about 33,000 sequences were measured (“E-score (-0.5 to 0.5)”: median about -0.054, highest 2% from about 0.39 on). The list shows a part of the results.
# Target: Ylr278c (UniProt Q05854)
# Experiment: PBM E-score (8-mer binding enrichment) (E-score (-0.5 to 0.5)); higher = stronger / more preferred TF binding; most listed sequences are background and not binding sites
# Conditions: protein concentration: 200 nM; construct: GST-DNA-binding domain
# In short: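 E-scores (a modified Wilcoxon-Mann-Whitney statistic) were assigned by the Universal PBM Analysis Suite to every ungapped eight-base word pooled with its reverse complement. The input came from universal all-10-mer Agilent arrays made double-stranded by primer extension and probed with GST-tagged yeast transcription factors at about 100-200 nM. Fluorescent anti-GST detected bound protein, and masliner normalised the scans.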
row,Sequence,PBM E-score
1,GCTCTAAC,-0.0661
2,ATTCTGAC,-0.139
3,CAGAAGTA,-0.204
4,CTCGGCTC,0.0899
5,CATGGGGC,-0.0703
6,GCAGCCAA,-0.0511
7,ATGAGTGA,-0.132
8,TCAACCCA,-0.0327
9,AGGTAAGC,-0.0616
10,CCAGCCGG,0.297
11,TCAGTGGA,-0.0109
12,ACAAACGA,0.00727
13,AGTGATAG,-0.195
14,TGCACGAA,-0.212
15,TCAAAAAA,0.0838
16,ACTGTTAT,-0.108
17,AAGTAACT,0.0219
18,ATCTGCAT,-0.0373
19,ATCGACCG,0.19
20,CGAGTTGC,-0.0686
21,GCCTCACA,-0.231
22,CGAAATCA,0.16
23,CGAGAAGA,0.0372
24,ATCGCGAA,0.286
25,AAGGCGAT,-0.244

row,Sequence,PBM E-score
1,CTGGGCGA,-0.158
2,AACACTTA,-0.0675
3,CATGGATA,-0.203
4,GCGAAAAC,-0.126
5,AATAACGT,-0.0941
6,CGTTAACA,-0.0824
7,CGGGAGTC,0.156
8,ATAACAGG,-0.304
9,AAGATGAG,-0.293
10,GAGCTAGC,-0.121
11,CTCGCTAC,-0.183
12,GATAGTGA,-0.0321
13,CCAAGGGG,-0.135
14,GAGCCATA,-0.186
15,AAACCATA,0.044
16,AAGAGCAC,-0.17
17,CCACGCGA,-0.003
18,CGTGTCGC,0.154
19,ACAGTCAG,-0.288
20,ACAATTAA,0.0151
21,CACCAACC,0.00935
22,CACACTGG,-0.243
23,AGAAGCGA,-0.0741
24,CAATCAGA,-0.165
25,AACCTCAA,-0.0886

row,Sequence,PBM E-score
1,CATATGCG,0.031
2,GGCTCTTA,-0.121
3,GTCCGGTA,0.366
4,ATTTACCG,0.359
5,CGTATTTC,0.0956
6,ATGGATCC,0.168
7,GATTCGAC,-0.19
8,ATGGGGTA,0.0221
9,TCGGAAGA,0.362
10,GTACCAAA,-0.0758
11,GGGTTGTA,0.014
12,CGAGGACG,0.151
13,TGCGCGAA,0.0699
14,TCCATCGA,0.00835
15,GGTAGAGA,-0.0783
16,AAATCGCG,0.136
17,CAATACCA,-0.133
18,TCTACTAA,-0.0405
19,ACGGAGCA,0.344
20,ACTTTACT,-0.0787
21,CAACTGGC,-0.0875
22,CCTCCACC,0.0478
23,GAGATCGA,0.0302
24,GCTGACCC,-0.0423
25,ACGATCAA,-0.163

row,Sequence,PBM E-score
1,GCGGCGAA,0.378
2,TAGTAGAA,-0.0566
3,ATTGTAGA,-0.135
4,GGGCTTAA,-0.0289
5,AGTTATTC,0.044
6,ATACAGTG,-0.246
7,ACTTGGTA,-0.12
8,CTGGGGAC,-0.284
9,GGGGTACC,0.076
10,AGTGGTTA,-0.247
11,AGGGTAGG,-0.128
12,CCATACGC,-0.169
13,AAGCCTTA,-0.141
14,GTCGTGCA,-0.292
15,AAAGACTG,-0.306
16,GCCTTGAC,-0.0142
17,AAAAAGGT,-0.0692
18,AAGTAACA,-0.0202
19,CCGCTGAA,0.102
20,CCTGCTCA,-0.145
21,ACTACGAG,-0.128
22,AAGGTCTA,-0.123
23,AATCGCAT,-0.0177
24,ATTGAAGC,0.00174
25,CCAACACA,-0.0865

row,Sequence,PBM E-score
1,TATTTGAA,-0.12
2,ACTCATAC,-0.106
3,CTTAGACA,-0.316
4,CTAGTAGC,-0.0518
5,CCAGCGGC,0.00708
6,GCCCAGAA,-0.053
7,CCTTAGCG,-0.00878
8,GCGCGCAC,0.196
9,CGGTGACG,0.101
10,CTCATCTC,-0.051
11,ATAACTAT,-0.106
12,GGCATGAC,-0.212
13,TACTAATA,0.00135
14,CACTTTTA,0.024
15,AATCCGGA,0.466
16,AATGCGTG,-0.281
17,CGCCTCAA,-0.00933
18,CGTGTGTA,0.0901
19,AACGCGAA,-0.0418
20,GTCGAGTA,-0.0162
21,GTTAGACA,0.00272
22,ACGCCGCC,0.279
23,AGTGAGTA,-0.0314
24,CTTGGCTA,-0.287
25,CCACCCTC,0.0462

row,Sequence,PBM E-score
1,CCCAGGAA,-0.157
2,ATGCCGAA,0.325
3,GAAGACGA,0.0241
4,ACGTTGCA,-0.125
5,ATTCGAAT,-0.183
6,GACCCCGC,0.247
7,ACTATTTG,-0.0506
8,AGTGGACG,0.0113
9,AACCTGTA,-0.229
10,GTAACTAC,-0.0221
11,AAATCTCT,0.00959
12,CGGAGGCA,0.34
13,CGACAGAC,-0.117
14,CGAAGCCA,-0.134
15,AGGTACAA,-0.22
16,ATTCCGAC,0.451
17,AACCACAA,0.0137
18,GCGCCTTA,-0.039
19,AGCAATTA,0.0127
20,AACTGAGG,-0.11
21,GGTGAACA,-0.253
22,AATGACTG,-0.167
23,ACGTTCCA,0.015
24,ACGCAATC,0.077
25,CCTGGACG,-0.156

row,Sequence,PBM E-score
1,AACTAGGT,0.202
2,CCCCACTC,-0.0243
3,AGCTGGCG,-0.0563
4,ACCTGCTC,-0.0269
5,CATGTAAC,-0.0897
6,TAGAGTGA,-0.0521
7,AGACTAAT,-0.0793
8,ACCAGATA,-0.0605
9,CACCAATA,0.0666
10,CGCACGTC,0.139
11,GAGCCGTA,0.075
12,GCAATTCA,0.0454
13,CAAAGGAA,-0.155
14,CATTTGGG,-0.0571
15,AAGTCTAT,-0.222
16,CGCTATTA,0.0466
17,AGGTATCG,0.152
18,CTGGGGTC,-0.0664
19,AAGAGGTA,0.08
20,GACATCTC,0.005
21,CGTTGTAG,0.116
22,AACGCTTA,-0.148
